PubChem BioAssay AID1508623 (National Center for Advancing Translational Sciences (NCATS), 2021)
In all, about 48,000 compounds went through this assay and about 450 (0.94%) were called active. Inconclusive results, whose numbers are uncertain, are shown with a selection of clear calls. Calls come from the whole dose curve; as a rule, active = well fitted inhibition curve with a large enough effect; inconclusive = small, poorly fitted or top-dose-only effect; inactive = no such curve, though single readings can be large or run the other way. Where the call is inconclusive, the potency comes from a doubtful curve fit.

Assay: Primary qHTS for Identification of Small Molecule Inhibitors of Huntingtin Promoter Activity; note: nearly all actives have a fitted effect of over 50% in size
Conditions: HEK293 HTT promoter firefly luciferase reporter (activity 0% = vehicle and -100% = no light), 24 h; activity change, negative = inhibition: at 57.5 µM (top of the series)
Procedure, shortened: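 HEK293 cells carrying firefly luciferase reporters were seeded at 2,500 per well in Opti-MEM and cultured for 24 h. They were then treated with compounds at up to 57.5 uM final for 24 h at 37 degrees C before Dual-Glo luminescence readout.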
Potency is the fitted concentration of half-maximal effect; tags give direction and shape of the fitted curve.

Q: For `Cc1ccc(NS(=O)(=O)c2ccc(-n3cccn3)cc2)cc1Cl`, which Potency is on record?
A: inconclusive: 39.8 µM [inhibitor, single point]

Q: For `CCOC(=O)N1CCc2c(sc3c2c(=O)n(-c2ccccc2C(F)(F)F)c(=O)n3Cc2ccccc2C)C1`, which Potency is on record?
A: inconclusive: 28.2 µM [inhibitor, partial curve]

Q: With `COc1cccc(-n2c(SCC(=O)Nc3c(C)cc(C)cc3C)nc3c([nH]c4ccccc43)c2=O)c1` as the compound, how does the Potency read?
A: inconclusive: 15.8 µM [inhibitor, single point]

Q: With `COc1ccc(CCNC(=O)c2ccc3c(c2)N(Cc2ccc(F)cc2)C(=O)CS3)cc1OC` as the compound, how does the Potency read?
A: inconclusive: 39.8 µM [inhibitor, single point]

Q: Which Potency does the source give for `Cc1cccc(-c2nc(CCNC(=O)Cc3ccccc3)cs2)c1` here?
A: inconclusive: 31.6 µM [inhibitor, single point]

Q: With `COc1ccc(OC)c(NC(=O)CSc2ccc(-c3sc(C)nc3C)nn2)c1` as the compound, how does the Potency read?
A: inconclusive: 28.2 µM [inhibitor, partial curve, poor fit]

Q: With `CCOC(=O)c1c(-c2ccccc2)oc2ccc(N(C(C)=O)S(=O)(=O)c3ccc(CC)cc3)cc12` as the compound, how does the Potency read?
A: inconclusive: 14.1 µM [inhibitor, partial curve, poor fit]

Q: With `COc1ccccc1NC(=O)CCn1nc(-c2ccccc2)c2ccccc2c1=O` as the compound, how does the Potency read?
A: inconclusive: 35.5 µM [inhibitor, single point]

Q: With `COc1ccccc1N1CCN(c2nc3ccc(C)cc3nc2-n2nc(C)cc2C)CC1` as the compound, how does the Potency read?
A: inconclusive: 39.8 µM [inhibitor, single point]

Q: With `CCCCOc1c(C(=O)c2c(F)cc(C)cc2F)cnc2n[nH]cc12` as the compound, how does the Potency read?
A: inconclusive: 2.43 µM [inhibitor, full curve]

Q: With `COc1ccc(CNC(=O)CCc2nc3cccnc3n2Cc2ccccc2)cc1` as the compound, how does the “activity change, negative = inhibition” value read?
A: inactive: -25.1%

Q: Which Potency does the source give for `Cc1ccc(C)c(CN2C(=O)c3ccccc3Sc3ccc(C(=O)NCc4cccs4)cc32)c1` here?
A: inconclusive: 12.6 µM [inhibitor, partial curve]

Q: Which Potency does the source give for `COc1ccc(NC(=O)c2ccc3c(c2)c(C)c(C)n3Cc2ccc(F)cc2)cc1` here?
A: inconclusive: 3.98 µM [inhibitor, partial curve, poor fit]

Q: For `O=C(CCc1ccccc1)NCCc1csc(-c2cccc(F)c2)n1`, which “activity change, negative = inhibition” value is on record?
A: inactive: -25.8%

Q: With `COc1cccc(CNC(=O)C(C)n2ccc3cc(S(=O)(=O)N4CCCCCC4)ccc32)c1` (stereo not drawn) as the compound, how does the Potency read?
A: inconclusive: 35.5 µM [inhibitor, single point]

Q: For `Cc1ccc(-c2[nH]c3ccccc3c2SCCNC(=O)c2ccc(S(=O)(=O)N3CCOCC3)cc2)cc1`, which Potency is on record?
A: inconclusive: 31.6 µM [inhibitor, partial curve, poor fit]

Q: Which Potency does the source give for `Cc1cccc2c1-c1sc(C(=O)NCCc3ccc(Cl)cc3)cc1CO2` here?
A: inconclusive: 15.8 µM [inhibitor, single point]

Q: For `Cc1c(C(=O)OC2CCCC2)[nH]c2c1C(=O)CC(c1ccc(C(C)(C)C)cc1)C2` (stereo not drawn), which Potency is on record?
A: inconclusive: 1.78 µM [inhibitor, full curve]

Q: For `CCC(=O)Oc1c(Sc2ccc(Cl)cc2)c(C)nn1C(C)(C)C`, which Potency is on record?
A: inconclusive: 39.8 µM [inhibitor, single point]

Q: With `CNC(=O)c1cccc(-c2ccc3c(N4CCOC[C@H]4C)nc(N4CCOC[C@H]4C)nc3n2)c1` as the compound, how does the Potency read?
A: inconclusive: 0.217 µM [inhibitor, full curve]

Q: For `Cc1ccc(CSC2=Nc3ccccc3C3=NC(CC(=O)NC4CCCCC4)C(=O)N23)c(C)c1` (stereo not drawn), which “activity change, negative = inhibition” value is on record?
A: inactive: -1.57%

Q: For `COc1ccc2nc3sc(C(=O)Nc4cc(Cl)c(OC)cc4OC)cc3cc2c1`, which “activity change, negative = inhibition” value is on record?
A: inactive: 19.5%

Q: With `CCOCCCn1c(=N)c(C(=O)NCc2ccco2)cc2c(=O)n3ccccc3nc21` as the compound, how does the “activity change, negative = inhibition” value read?
A: inactive: -4.88%

Q: Which Potency does the source give for `CCOC(=O)c1c(C)sc(-c2c(-c3ccc4c(c3)OCCO4)[nH]c3c2c(=O)[nH]c(=O)n3C)c1O` here?
A: inconclusive: 25.1 µM [inhibitor, partial curve, poor fit]

Q: With `COc1cccc(-n2c(=O)c3sc4ccccc4c3n(CC(=O)Nc3ccc(F)cc3F)c2=O)c1` as the compound, how does the Potency read?
A: inconclusive: 35.5 µM [inhibitor, single point]

Q: For `COc1ccc(N2CC3=C(C2=O)C(c2ccc(Br)cc2)NC(=O)N3C)cc1` (stereo not drawn), which Potency is on record?
A: inconclusive: 28.2 µM [inhibitor, partial curve, poor fit]

Q: Which Potency does the source give for `Cc1cc(Nc2sc(C(=O)c3ccc(F)cc3)c(N)c2C(=O)Nc2ccc(F)cc2)ccc1Cl` here?
A: inconclusive: 2.24 µM [inhibitor, full curve, poor fit]

Q: For `CCOC(=O)c1c(C)[nH]c(CCC(=O)NCCCN2CCN(c3cc(C)ccc3C)CC2)c1C`, which Potency is on record?
A: inconclusive: 17.8 µM [inhibitor, single point]

Q: With `O=C1NC(=O)C(c2cnc3ccccn23)=C1c1cn2c3c(cccc13)CN(C(=O)N1CCOCC1)CC2` as the compound, how does the Potency read?
A: inconclusive: 13.7 µM [inhibitor, partial curve, poor fit]

Q: Which Potency does the source give for `CCN(CC)S(=O)(=O)c1ccc(NC(=O)CCc2c(C)nc3cc(-c4ccc(Cl)cc4)nn3c2C)cc1` here?
A: inconclusive: 1 µM [inhibitor, full curve, poor fit]

Q: Which Potency does the source give for `COc1ccc(Cl)cc1NC(=O)CSc1ccc(-c2sc(C)nc2C)nn1` here?
A: inconclusive: 22.4 µM [inhibitor, single point]

Q: With `Cc1cc2oc(C(=O)Nc3sc4c(c3C(=O)NCC3CCCO3)CCC4)cc(=O)c2cc1C` (stereo not drawn) as the compound, how does the “activity change, negative = inhibition” value read?
A: inactive: -29%

Q: For `O=C(Nc1ccc2oc(-c3cccnc3)nc2c1)c1ccc(-c2ccc(Cl)cc2)o1`, which “activity change, negative = inhibition” value is on record?
A: inactive: 7.46%

Q: For `CCn1c(=O)c2cc(C(=O)NC3CCCCCC3)sc2c2ccccc21`, which Potency is on record?
A: inconclusive: 39.8 µM [inhibitor, single point]

Q: For `O=S(=O)(NCc1ccccc1)c1ccc(-c2cnc(C3CC3)o2)cc1`, which Potency is on record?
A: inconclusive: 14.1 µM [inhibitor, partial curve]

Q: Which Potency does the source give for `COc1ccc(CNC(=O)CN(c2ccccc2OC)S(=O)(=O)c2ccc(C)cc2)cc1` here?
A: inconclusive: 35.5 µM [inhibitor, partial curve, poor fit]

Q: With `CCCOc1cccc(C(=O)Nc2ccc(-c3nc4ccccc4s3)c(Cl)c2)c1` as the compound, how does the “activity change, negative = inhibition” value read?
A: inactive: 5.13%

Q: With `CCN1C(C(=O)c2ccccc2)=C(OC(=O)C(C)C)c2ccccc2S1(=O)=O` as the compound, how does the Potency read?
A: inconclusive: 31.6 µM [inhibitor, partial curve, poor fit]
